Experimental data as given in the supplement of paper PMC7826260.
This is one part of the list. Cleavage of a single-stranded DNA pool by Rep nickase domains was read by sequencing (3 µM enzyme, 1 h, 37 °C); shown is the middle of each 90-letter strand. A value is the log2 ratio of uncut reads to the pool without enzyme; more negative means more cut, near 0 not cut, and no call is made. The scaling is to total reads; values above 0 arise when much of the pool is cut.

Tests used:
Assay in all cases: uncleaved DNA left, log2 of reads against the no-enzyme library (log2 ratio); higher = less cleavage (more negative = more Rep cleavage of the k-mer); sequences stand for … in CTCGTCCG…ACCGGAGA
[1] = test system: T1, Rep nickase domain of Muscovy duck circovirus
T1 sequence (residues 1-111 of Rep, tag left off): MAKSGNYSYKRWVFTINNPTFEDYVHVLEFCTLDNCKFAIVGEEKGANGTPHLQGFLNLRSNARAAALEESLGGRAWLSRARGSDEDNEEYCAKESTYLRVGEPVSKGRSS
Protocol: (§1)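 A pool of 90-nt single-stranded DNAs with seven random bases just before the constant AC of the nick site (name = the seven bases) was cut by 3 µM recombinant His6-SUMO-tagged Rep nickase domain (300 nM DNA, 50 mM HEPES pH 8.0, 50 mM NaCl, 1 mM MnCl2, 1 h, 37 °C, three replicates). Uncut DNA was amplified and sequenced.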

[2] = test system: T2, Rep nickase domain of banana bunchy top virus
T2 sequence (residues 1-94 of Rep, tag left off): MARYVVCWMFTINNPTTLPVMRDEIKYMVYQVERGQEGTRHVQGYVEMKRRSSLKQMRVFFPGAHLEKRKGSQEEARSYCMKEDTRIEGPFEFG
Protocol: as §1

[3] = test system: T3, Rep nickase domain of cabbage leaf curl virus
T3 sequence (residues 1-116 of Rep, tag left off): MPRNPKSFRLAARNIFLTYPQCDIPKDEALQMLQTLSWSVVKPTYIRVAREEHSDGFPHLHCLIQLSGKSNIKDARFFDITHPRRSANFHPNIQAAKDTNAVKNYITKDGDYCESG
Protocol: as §1

[4] = test system: T4, Rep nickase domain of chickpea chlorotic dwarf virus
T4 sequence (residues 1-124 of Rep, tag left off): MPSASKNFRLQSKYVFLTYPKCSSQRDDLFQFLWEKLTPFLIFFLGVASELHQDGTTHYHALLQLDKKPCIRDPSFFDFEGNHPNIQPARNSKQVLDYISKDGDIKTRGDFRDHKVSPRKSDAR
Protocol: as §1

[5] = test system: T5, Rep nickase domain of faba bean necrotic yellows virus
T5 sequence (residues 1-98 of Rep, tag left off): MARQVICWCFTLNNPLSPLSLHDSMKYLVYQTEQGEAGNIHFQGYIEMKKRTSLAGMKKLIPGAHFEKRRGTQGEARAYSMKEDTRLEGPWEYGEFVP
Protocol: as §1

[6] = test system: T6, Rep nickase domain of maize striate mosaic virus
T6 sequence (residues 1-117 of Rep, tag left off): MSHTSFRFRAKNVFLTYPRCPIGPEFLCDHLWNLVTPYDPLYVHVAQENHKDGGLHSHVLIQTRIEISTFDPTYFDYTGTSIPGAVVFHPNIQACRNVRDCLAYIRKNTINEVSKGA
Protocol: as §1

[7] = test system: T7, Rep nickase domain of porcine circovirus 2
T7 sequence (residues 2-116 of Rep, tag left off): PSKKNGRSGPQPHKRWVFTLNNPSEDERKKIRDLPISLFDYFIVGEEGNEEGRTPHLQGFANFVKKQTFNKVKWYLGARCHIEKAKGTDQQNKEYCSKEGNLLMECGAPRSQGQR
Protocol: as §1

[8] = test system: T8, Rep nickase domain of tomato golden mosaic virus
T8 sequence (residues 1-124 of Rep, tag left off): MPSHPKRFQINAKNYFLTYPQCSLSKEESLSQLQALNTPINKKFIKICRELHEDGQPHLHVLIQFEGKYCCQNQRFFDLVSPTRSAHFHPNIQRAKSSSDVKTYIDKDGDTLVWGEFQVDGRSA
Protocol: as §1

[9] = test system: T9, Rep nickase domain of tomato yellow leaf curl virus
T9 sequence (residues 1-136 of Rep, tag left off): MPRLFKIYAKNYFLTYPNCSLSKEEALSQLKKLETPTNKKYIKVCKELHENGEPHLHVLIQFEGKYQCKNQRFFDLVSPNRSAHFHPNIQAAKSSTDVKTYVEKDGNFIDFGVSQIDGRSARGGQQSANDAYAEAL
Protocol: as §1

[10] = test system: T10, Rep nickase domain of wheat dwarf virus
T10 sequence (residues 1-137 of Rep, tag left off): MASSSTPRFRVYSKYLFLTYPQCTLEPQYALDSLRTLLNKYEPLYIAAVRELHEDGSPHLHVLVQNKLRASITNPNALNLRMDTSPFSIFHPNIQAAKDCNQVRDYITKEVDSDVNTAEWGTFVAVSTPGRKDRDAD
Protocol: as §1

Sequence | uncleaved DNA left (log2) [1] | uncleaved DNA left (log2) [2] | uncleaved DNA left (log2) [3] | uncleaved DNA left (log2) [4] | uncleaved DNA left (log2) [5] | uncleaved DNA left (log2) [6] | uncleaved DNA left (log2) [7] | uncleaved DNA left (log2) [8] | uncleaved DNA left (log2) [9] | uncleaved DNA left (log2) [10]
AGAGCTA | 0.113 | 0.0145 | 0.0254 | 0.168 | 0.035 | 0.712 | -0.42 | 0.169 | 0.0234 | 0.0419
TGTTGTA | -0.2 | -0.0947 | 0.0192 | -0.277 | -0.127 | -0.148 | -0.224 | -0.0187 | -0.00112 | -0.12
CTCCCGA | 0.0814 | 0.152 | -0.196 | -0.319 | 0.234 | -0.727 | 0.149 | -0.0306 | 0.0866 | 0.00269
TGGACGG | 0.0386 | 0.0581 | 0.574 | 1.62 | 0.0146 | 1.9 | 0.134 | 0.0532 | 0.0783 | 0.105
ATGTTCG | -0.00729 | 0.0348 | -0.859 | -0.0144 | 0.0437 | -0.954 | 0.151 | -0.0316 | 0.0305 | -0.131
CAACTTA | 0.00372 | 0.0478 | -0.203 | -2.57 | 0.0341 | -0.674 | -0.168 | 0.00874 | -0.00724 | 0.0183
TGGACCC | 0.0732 | 0.065 | 0.609 | 1.5 | -0.0848 | 1.89 | 0.0447 | 0.0362 | -0.0495 | 0.0552
ATGGACG | 0.107 | -0.0851 | -0.717 | -0.686 | 0.0236 | -1.03 | 0.216 | 0.0207 | 0.137 | 0.0212
GCAATGT | -0.14 | -0.0624 | -0.0237 | 0.076 | 0.0205 | -0.353 | 0.00631 | -0.00721 | 0.0022 | -0.153
GCAGGAA | 0.222 | 0.134 | 0.465 | 1.28 | 0.119 | 1.22 | 0.189 | 0.157 | -0.0131 | 0.215
ACGTTTG | 0.15 | 0.00651 | -0.529 | -0.347 | -0.0971 | -0.927 | 0.0224 | 0.0416 | -0.0512 | -0.0124
TCTGAAT | 0.144 | 0.136 | 0.221 | -0.0163 | 0.143 | 0.393 | 0.00629 | 0.176 | 0.156 | 0.112
CGAGCAA | -0.0761 | -0.0122 | -0.0582 | 0.229 | 0.108 | 0.238 | -1.22 | 0.0809 | 0.117 | 0.00545
CGGGCAA | 0.159 | 0.0929 | 0.824 | 1.85 | 0.063 | 2.15 | 0.158 | 0.0061 | 0.109 | 0.172
TGTAGGA | 0.0581 | 0.023 | 0.167 | 0.368 | 0.0884 | -0.205 | 0.113 | 0.171 | -0.0502 | 0.0278
GATTGTC | 0.112 | 0.0802 | -0.116 | 0.106 | 0.000177 | -0.636 | -0.0321 | 0.0315 | 0.135 | 0.0552
CAGATTC | -0.0199 | -0.0496 | -0.133 | -0.314 | -0.0606 | -0.848 | -0.185 | 0.00624 | -0.0185 | -0.0784
GTACGAG | 0.0881 | 0.177 | 0.725 | 1.2 | 0.131 | 1.12 | 0.147 | 0.0853 | 0.108 | 0.171
AAGCGTA | 0.167 | 0.0713 | 0.096 | 0.0779 | 0.196 | 0.204 | -0.0195 | 0.0921 | 0.135 | 0.0299
TGCAATC | -0.124 | 0.0515 | 0.0839 | 0.534 | -0.072 | 0.201 | 0.0334 | 1.46e-05 | 0.0663 | -0.0493
CACCGTC | -0.0576 | -0.173 | -0.147 | -0.498 | -0.164 | -0.762 | -0.0422 | -0.137 | -0.275 | -0.0598
GACCCGG | -0.158 | 0.00533 | 0.431 | 1.36 | -0.196 | 1.64 | -0.04 | 0.0761 | -0.16 | -0.0897
TTATCGT | -0.143 | 0.0495 | -0.47 | -0.901 | 0.0397 | -1.02 | -0.152 | -0.00971 | 0.151 | -0.0107
CGTCCAC | -0.0523 | -0.112 | 0.0531 | -0.0343 | -0.121 | -0.381 | 0.00571 | -0.184 | -0.0151 | 0.143
GATCACT | -0.142 | -0.0359 | 0.124 | -1.89 | 0.067 | 0.77 | -0.87 | -0.0484 | -0.00858 | 0.0394
AAGCTTA | -0.0586 | -0.0539 | -0.0896 | -1.36 | 0.000609 | 0.571 | -0.638 | -0.0373 | -0.0788 | -0.125
TTCTTCA | -0.0936 | -0.0687 | 0.121 | -0.959 | 0.0115 | -0.083 | -0.293 | -0.142 | 0.0323 | 0.0101
AAGAAGG | 0.0393 | -0.0347 | 0.0224 | 0.396 | 0.0199 | -0.398 | -0.0178 | 0.0929 | -0.0547 | -0.0144
GTTATAA | 0.0785 | 0.134 | 0.324 | 0.829 | 0.0682 | 1.78 | 0.161 | 0.151 | 0.119 | 0.0992
CTTTCGA | 0.0122 | 0.0962 | -0.648 | -0.799 | 0.0466 | -1.17 | 0.0239 | -0.042 | 0.0283 | -0.0472
